# From PubChem BioAssay AID504333 (National Center for Advancing Translational Sciences (NCATS), 2011)
# Out of some 360,000 compounds screened, about 16,000 (4.4%) were called active. Inconclusive means that the source gave no clear call. Such entries were picked first, then a sample of the others. The call rests on the fitted dose curve; in most records, active means well fitted inhibition curve with a large enough effect; inconclusive means small, poorly fitted or top-dose-only effect; inactive means no such curve, though single readings can be large or run the other way. Potencies beside an inconclusive call are fits to weak or partial responses and may not hold up.
# Target: Bromodomain adjacent to zinc finger domain protein 2B (Homo sapiens) (UniProt Q9UIF8)
# Test: qHTS Assay for Inhibitors of BAZ2B; further: nearly all actives have a fitted effect of over 60% in size
# Conditions: AlphaScreen BAZ2B-H3K14Ac peptide displacement; series mostly up to 114 µM
# Outline: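 BAZ2B 50 nM plus b-H3(5-23)K14Ac 50 nM, PBS pH 7.4/0.01% Tween-20, 30 min RT; compound added (max 110 uM), 30 min RT; streptavidin donor/Ni-chelate acceptor beads 10 ug/mL final, 20 min dark; AlphaScreen read.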
# Potency means the concentration at half of the fitted maximal effect; tags describe the fitted curve by direction and shape.
# UniProt Q9UIF8, sequence (Q9UIF8 whole entry, looked up, the tested form may be a part): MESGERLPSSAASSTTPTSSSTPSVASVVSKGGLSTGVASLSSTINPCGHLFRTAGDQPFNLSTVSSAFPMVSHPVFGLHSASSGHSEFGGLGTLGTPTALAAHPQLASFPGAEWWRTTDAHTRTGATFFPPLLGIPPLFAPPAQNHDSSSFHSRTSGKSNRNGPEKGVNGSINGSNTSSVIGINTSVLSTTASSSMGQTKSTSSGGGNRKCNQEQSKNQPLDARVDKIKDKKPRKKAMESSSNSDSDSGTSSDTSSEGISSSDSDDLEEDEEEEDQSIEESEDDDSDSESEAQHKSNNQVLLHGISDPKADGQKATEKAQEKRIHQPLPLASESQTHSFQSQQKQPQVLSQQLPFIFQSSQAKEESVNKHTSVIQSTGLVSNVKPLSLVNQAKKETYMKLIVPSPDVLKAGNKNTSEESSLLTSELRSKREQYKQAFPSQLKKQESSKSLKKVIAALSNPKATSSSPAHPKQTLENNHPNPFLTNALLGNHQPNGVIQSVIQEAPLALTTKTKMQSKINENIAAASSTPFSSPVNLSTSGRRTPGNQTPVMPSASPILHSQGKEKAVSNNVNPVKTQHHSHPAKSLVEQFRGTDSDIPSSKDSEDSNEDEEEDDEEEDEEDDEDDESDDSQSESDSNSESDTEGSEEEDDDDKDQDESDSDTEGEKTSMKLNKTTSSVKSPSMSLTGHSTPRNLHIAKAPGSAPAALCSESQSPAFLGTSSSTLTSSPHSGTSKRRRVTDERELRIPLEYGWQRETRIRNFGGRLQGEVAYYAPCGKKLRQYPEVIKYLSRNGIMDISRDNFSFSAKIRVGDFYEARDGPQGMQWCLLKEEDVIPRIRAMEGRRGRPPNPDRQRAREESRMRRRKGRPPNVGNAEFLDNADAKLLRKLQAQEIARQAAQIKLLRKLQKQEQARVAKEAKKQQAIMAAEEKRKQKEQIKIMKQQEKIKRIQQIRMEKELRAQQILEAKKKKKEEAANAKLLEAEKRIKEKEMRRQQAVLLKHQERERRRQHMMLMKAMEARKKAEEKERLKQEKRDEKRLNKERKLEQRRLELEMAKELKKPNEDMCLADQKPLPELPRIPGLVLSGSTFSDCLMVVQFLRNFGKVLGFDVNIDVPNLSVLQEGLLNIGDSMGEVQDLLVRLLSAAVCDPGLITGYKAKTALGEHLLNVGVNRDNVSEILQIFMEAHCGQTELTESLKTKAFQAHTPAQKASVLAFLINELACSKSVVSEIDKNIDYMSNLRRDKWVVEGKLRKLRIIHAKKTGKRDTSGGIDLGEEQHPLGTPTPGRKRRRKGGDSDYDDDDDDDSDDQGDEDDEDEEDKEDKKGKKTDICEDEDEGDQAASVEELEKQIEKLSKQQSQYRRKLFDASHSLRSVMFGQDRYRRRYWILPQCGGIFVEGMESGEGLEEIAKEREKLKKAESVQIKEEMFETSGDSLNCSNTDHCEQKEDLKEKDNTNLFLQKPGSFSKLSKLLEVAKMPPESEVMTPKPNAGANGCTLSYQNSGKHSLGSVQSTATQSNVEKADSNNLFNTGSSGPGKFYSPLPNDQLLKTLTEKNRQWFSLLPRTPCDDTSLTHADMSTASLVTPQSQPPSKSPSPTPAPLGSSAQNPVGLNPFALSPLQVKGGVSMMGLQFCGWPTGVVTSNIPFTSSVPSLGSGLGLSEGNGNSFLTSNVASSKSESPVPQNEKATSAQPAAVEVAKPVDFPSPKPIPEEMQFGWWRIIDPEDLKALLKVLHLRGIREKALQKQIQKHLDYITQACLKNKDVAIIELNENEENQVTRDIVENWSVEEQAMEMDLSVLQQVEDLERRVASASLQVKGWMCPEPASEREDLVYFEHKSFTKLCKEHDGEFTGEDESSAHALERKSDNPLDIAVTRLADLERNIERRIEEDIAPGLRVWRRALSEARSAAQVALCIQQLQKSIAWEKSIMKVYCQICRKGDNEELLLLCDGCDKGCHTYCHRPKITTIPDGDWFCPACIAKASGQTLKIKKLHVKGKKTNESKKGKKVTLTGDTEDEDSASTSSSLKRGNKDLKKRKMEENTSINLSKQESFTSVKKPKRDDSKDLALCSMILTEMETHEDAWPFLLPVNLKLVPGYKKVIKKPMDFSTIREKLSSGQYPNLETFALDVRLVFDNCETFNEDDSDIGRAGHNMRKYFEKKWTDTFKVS
row,SMILES,Potency
1,O=S(=O)(c1cccc2nsnc12)N1CCc2ccccc21,active: 70.8 µM
2,O=C(Nc1nc(-c2ccccn2)cs1)c1ccco1,active: 7.94 µM
3,COc1ccc(-c2nc3ccccn3c2NCc2ccc3c(c2)OCO3)cc1,active: 50.1 µM
4,C=CCN1CCN(C(c2cccc(OC)c2OC)c2nnnn2CCC(C)C)CC1 (centres undefined),"inconclusive: 79.4 µM [inhibitor, single point]"
5,Cc1ccccc1NC(=O)Cc1nc(COC(=O)c2ccc(S(C)(=O)=O)c([N+](=O)[O-])c2)cs1,inactive
6,CCc1nnc(NC(=O)CN2CCN(c3ccccc3OC)CC2)s1,inactive
7,COC(=O)C1CCN(C(=O)COC(=O)c2ccc3[nH]c4c(c3c2)CCCC4)CC1,"inconclusive: 79.4 µM [inhibitor, single point]"
8,CCN(C(=O)c1ccc2c(Cl)c3c(nc2c1)CCC3)c1ccc(C)c(C)c1,"inconclusive: 63.1 µM [inhibitor, partial curve, poor fit]"
9,Cc1ccc(S(=O)(=O)N(CC2CO2)c2cc(Cl)ccc2Cl)cc1 (centres undefined),inactive
10,CCOC(=O)N1CCN(C(=S)Nc2ccc3nc(N4CCN(CC)CC4)cc(C)c3c2)CC1,inactive
11,CC(/C=N/NC(=O)c1cc(-c2ccc(Cl)cc2)nc2ccccc12)=C\c1ccco1,"inconclusive: 22.4 µM [inhibitor, full curve, poor fit]"
12,Cc1ccc(C)c(NC(=O)CSc2nccn2-c2cccc(C)c2C)c1,active: 10 µM
13,COc1ccc(Sc2nc(-c3ccccn3)ncc2OC)cc1,active: 28.2 µM
14,O=C(OCC#CCSc1nnc(-c2cccc3ccccc23)o1)c1cnc[nH]1,"inconclusive: 89.1 µM [inhibitor, single point]"
15,COc1cccc(NC(=O)c2ccc3c(c2)OCO3)c1,"inconclusive: 89.1 µM [inhibitor, single point]"
16,COC(=O)c1nc2n(n1)C(c1ccc([N+](=O)[O-])cc1)C(C(=O)Nc1ccc(Cl)cc1)=C(C)N2 (centres undefined),"inconclusive: 89.1 µM [inhibitor, single point]"
17,CC(=O)c1c(C)[nH]c(C(=O)Nc2cccc(S(=O)(=O)N3CCCCC3)c2)c1C,"inconclusive: 79.4 µM [inhibitor, single point]"
18,COc1cccc(OC)c1C(=O)NCCc1sc(-c2cccc(F)c2)nc1C,inactive
19,Brc1ccc(CNc2nc3ccccc3n2CCN2CCCCC2)cc1,"inconclusive: 44.7 µM [inhibitor, partial curve]"
20,CCOc1ccc2c(c1)c(=O)c(C(=O)c1ccc3c(c1)OCO3)cn2Cc1ccc(F)cc1,inactive
21,COc1ccc(CCC(=O)Nc2ccc(C)c([N+](=O)[O-])c2)cc1,"inconclusive: 50.1 µM [inhibitor, partial curve]"
22,Cc1nn(-c2nc(-c3ccccc3)cc(C(F)(F)F)n2)c(C)c1Cl,inactive
23,COc1ccccc1N1CCN(c2ncnc3c2c(-c2ccccc2)cn3-c2cccc(Cl)c2)CC1,"inconclusive: 20 µM [inhibitor, full curve]"
24,c1ccc2c(c1)ncn2CCn1cnc2ccccc21,inactive
25,CCN(CC)C1=N/C(=C\c2ccco2)C(=O)N1c1ccccc1,"inconclusive: 89.1 µM [inhibitor, single point]"

row,SMILES,Potency
1,COc1ccc(-n2c(C)c([N+](=O)[O-])c3ccc(O)c(CN4CCCCC4)c32)cc1,"inconclusive: 44.7 µM [inhibitor, partial curve]"
2,CCc1ccc(OCCSc2nc3ccccc3n2CC(=O)N2CCCCC2)cc1,"inconclusive: 25.1 µM [inhibitor, full curve]"
3,CCOC(=O)c1sc(=S)n(-c2ccccc2Cl)c1SC,inactive
4,O=C(Nc1ccccc1Cl)c1ccc(S(=O)(=O)NCC2CCCO2)cc1 (centres undefined),inactive
5,CC(C)(C)OC(=O)N1CCC(c2c(C(=O)NCc3cccs3)cnn2-c2cccc(F)c2)CC1,inactive
6,CC(=O)CC(=O)Nc1ccc(Nc2ccccc2)cc1,"inconclusive: 56.2 µM [inhibitor, single point]"
7,CSc1nnc(-c2ccco2)c(-c2ccco2)n1,active: 20 µM
8,CN(C)c1ccc(Nc2ncnc3ccc(Br)cc23)cc1,active: 44.7 µM
9,Cn1nc(-c2ccccc2F)c2cc(C(=O)NCc3ccccc3Cl)sc21,inactive
10,O=S(=O)(Nc1nc(-c2ccccc2)cs1)c1cccc(C(F)(F)F)c1,"inconclusive: 50.1 µM [inhibitor, partial curve]"
11,Cc1occc1C(=O)NCc1cccc(CNC(=O)c2ccoc2C)c1,active: 50.1 µM
12,COc1ccc(CC(=O)N2CCc3cc(OC)c(OC)cc3C2COc2ccc(F)cc2)cc1 (centres undefined),"inconclusive: 22.4 µM [inhibitor, full curve]"
13,O=C(NCCCO)c1ccc(CSc2nc3ccccc3[nH]2)cc1,inactive
14,COc1cc(/C=N/NC(=O)c2cccnc2)ccc1OS(=O)(=O)c1ccc(C)cc1,"inconclusive: 89.1 µM [inhibitor, single point]"
15,Nc1nnnn1CC(=O)N/N=C/c1ccc(-c2cccc(Cl)c2)o1,"inconclusive: 79.4 µM [inhibitor, partial curve]"
16,Cc1ccc(C2c3[nH]c4ccccc4c3C[C@H]3C(=O)N(c4ccccc4C(=O)NCCN4CCOCC4)C(=O)N23)cc1 (some centres undefined),"inconclusive: 79.4 µM [inhibitor, single point]"
17,Oc1c(Br)cc(/C=N/Nc2ccc(Cl)nn2)cc1Br,active: 50.1 µM
18,CC(O)CNCCCOc1ccc(Cl)cc1C(C)(C)C (centres undefined),"inconclusive: 50.1 µM [inhibitor, partial curve]"
19,Clc1ccc(OCCCCN2CCCCC2)cc1,active: 50.1 µM
20,Cc1ccc(C)c(CSc2cn(CC(=O)N3CCCC3)c3ccccc23)c1,"inconclusive: 70.8 µM [inhibitor, single point]"
21,CCOc1ccc(NC(=O)CCc2c(C)nc3c4c(C)cc(C)nc4nn3c2C)cc1,inactive
22,CSc1ccc(N2CCN(CCCNC(=O)Nc3ccccc3F)CC2)cc1,"inconclusive: 11.2 µM [inhibitor, partial curve, poor fit]"
23,O=C(CSc1nc2ccccc2c(=O)[nH]1)Nc1ccc(N2CCOCC2)c(Cl)c1,inactive
24,COc1ccc(NC(=O)COc2ccccc2C(=O)NCC(c2ccccc2)N(C)C)cc1Cl (centres undefined),"inconclusive: 79.4 µM [inhibitor, partial curve]"
25,Cc1ccc(CNC(=O)C2CCN(S(=O)(=O)c3c(C)noc3C)CC2)cc1,inactive

row,SMILES,Potency
1,CCN(C(=O)CSc1nc2ccccc2c(=O)n1CCOC)C1CCS(=O)(=O)C1 (centres undefined),inactive
2,COc1ccc(C(=O)N2CCN(Cc3ccccc3C(F)(F)F)CC2)cc1,"inconclusive: 79.4 µM [inhibitor, partial curve]"
3,COc1ccc2c(c1)C(c1cccs1)=NNC(c1cccnc1)=N2,"inconclusive: 56.2 µM [inhibitor, single point]"
4,O=[N+]([O-])c1ccc(Sc2cccc[n+]2[O-])c2nonc12,active: 56.2 µM
5,CC(C)C[C@H](NC(=O)c1nc[nH]c1C(=O)N[C@@H](CC(C)C)C(=O)OCc1ccccc1)C(=O)OCc1ccccc1,inactive
6,O=[N+]([O-])c1nn(-c2ccc3c(c2)OCCO3)n(O)c1=NCc1ccc(F)cc1Cl,inactive
7,O=C(c1cccc(S(=O)(=O)NCc2ccccc2)c1)N1CCN(c2ccc(F)cc2)CC1,"inconclusive: 89.1 µM [inhibitor, single point]"
8,N#Cc1ccccc1S(=O)(=O)N1CCN(C(=O)C2COc3ccccc3O2)CC1 (centres undefined),"inconclusive: 50.1 µM [inhibitor, partial curve]"
9,COc1cc(/C=C2\SC(=S)N(Nc3ccccc3)C2=O)cc(OC)c1OC,active: 22.4 µM
10,COc1ccc(Nc2cc(C(=O)NCc3ccccn3)c3ccccc3n2)c(OC)c1,"inconclusive: 39.8 µM [inhibitor, partial curve]"
11,Cn1c(=O)[nH]c(Nc2ccc(F)cc2)c([N+](=O)[O-])c1=O,inactive
12,COc1ccccc1/C=N/NC(=O)c1cccc2ccccc12,inactive
13,C=CCn1c(SCCOc2ccc(OC)cc2)nnc1C(C)NC(=O)Cc1ccc(OC)cc1 (centres undefined),"inconclusive: 6.31 µM [inhibitor, single point]"
14,COc1cc(N=Nc2ccc3ccccc3c2)ccc1O,active: 25.1 µM
15,COc1ccc(CNC(=O)Nc2ccc(C)c(C)c2)cc1,inactive
16,O=C(N/N=C/c1cn[nH]c1-c1ccc(F)cc1)c1ccncc1,"inconclusive: 89.1 µM [inhibitor, single point]"
17,O=C(CCCN1C(=O)/C(=C\c2ccccc2)SC1=S)Nc1ccccc1O,"inconclusive: 3.98 µM [inhibitor, single point]"
18,O=C(COc1ccc2c(-c3ccccc3)cc(=O)oc2c1)Nc1ccc(CCO)cc1,"inconclusive: 79.4 µM [inhibitor, partial curve]"
19,CCOC(=O)c1cc(OC(=O)c2cccc([N+](=O)[O-])c2)n(-c2ccccc2)n1,"inconclusive: 70.8 µM [inhibitor, single point]"
20,COc1ccc(Br)cc1CNC(=O)C1CCN(c2nnc(-n3cccc3CNc3ccc(C)cc3)s2)CC1,inactive
21,CCn1cc(C(=O)N(C)c2cc(C)ccc2C)c2cc(OC)c(OC)cc2c1=O,inactive
22,COc1ccc(NCc2ccc(OC)c(OC)c2)cc1,"inconclusive: 50.1 µM [inhibitor, partial curve]"
23,Cc1nc(N2CCN(c3ccccc3O)CC2)c2c(-c3ccccc3)csc2n1,active: 39.8 µM
24,CN(C)N=Nc1nc2c(c(=O)n(C)c(=O)n2C)n1C,inactive
